From publication PMC6760808
Results are given in words; binding and its absence hold for the method and conditions named. For part of these data: In cells and extracts the contact can be indirect. For part of these data: Sequences can lack the tags named with a protein. Some entries that bind do so weakly or less than the wild type.

Amino acid sequences for entries named in this document (tags omitted).
UniProt Q92621: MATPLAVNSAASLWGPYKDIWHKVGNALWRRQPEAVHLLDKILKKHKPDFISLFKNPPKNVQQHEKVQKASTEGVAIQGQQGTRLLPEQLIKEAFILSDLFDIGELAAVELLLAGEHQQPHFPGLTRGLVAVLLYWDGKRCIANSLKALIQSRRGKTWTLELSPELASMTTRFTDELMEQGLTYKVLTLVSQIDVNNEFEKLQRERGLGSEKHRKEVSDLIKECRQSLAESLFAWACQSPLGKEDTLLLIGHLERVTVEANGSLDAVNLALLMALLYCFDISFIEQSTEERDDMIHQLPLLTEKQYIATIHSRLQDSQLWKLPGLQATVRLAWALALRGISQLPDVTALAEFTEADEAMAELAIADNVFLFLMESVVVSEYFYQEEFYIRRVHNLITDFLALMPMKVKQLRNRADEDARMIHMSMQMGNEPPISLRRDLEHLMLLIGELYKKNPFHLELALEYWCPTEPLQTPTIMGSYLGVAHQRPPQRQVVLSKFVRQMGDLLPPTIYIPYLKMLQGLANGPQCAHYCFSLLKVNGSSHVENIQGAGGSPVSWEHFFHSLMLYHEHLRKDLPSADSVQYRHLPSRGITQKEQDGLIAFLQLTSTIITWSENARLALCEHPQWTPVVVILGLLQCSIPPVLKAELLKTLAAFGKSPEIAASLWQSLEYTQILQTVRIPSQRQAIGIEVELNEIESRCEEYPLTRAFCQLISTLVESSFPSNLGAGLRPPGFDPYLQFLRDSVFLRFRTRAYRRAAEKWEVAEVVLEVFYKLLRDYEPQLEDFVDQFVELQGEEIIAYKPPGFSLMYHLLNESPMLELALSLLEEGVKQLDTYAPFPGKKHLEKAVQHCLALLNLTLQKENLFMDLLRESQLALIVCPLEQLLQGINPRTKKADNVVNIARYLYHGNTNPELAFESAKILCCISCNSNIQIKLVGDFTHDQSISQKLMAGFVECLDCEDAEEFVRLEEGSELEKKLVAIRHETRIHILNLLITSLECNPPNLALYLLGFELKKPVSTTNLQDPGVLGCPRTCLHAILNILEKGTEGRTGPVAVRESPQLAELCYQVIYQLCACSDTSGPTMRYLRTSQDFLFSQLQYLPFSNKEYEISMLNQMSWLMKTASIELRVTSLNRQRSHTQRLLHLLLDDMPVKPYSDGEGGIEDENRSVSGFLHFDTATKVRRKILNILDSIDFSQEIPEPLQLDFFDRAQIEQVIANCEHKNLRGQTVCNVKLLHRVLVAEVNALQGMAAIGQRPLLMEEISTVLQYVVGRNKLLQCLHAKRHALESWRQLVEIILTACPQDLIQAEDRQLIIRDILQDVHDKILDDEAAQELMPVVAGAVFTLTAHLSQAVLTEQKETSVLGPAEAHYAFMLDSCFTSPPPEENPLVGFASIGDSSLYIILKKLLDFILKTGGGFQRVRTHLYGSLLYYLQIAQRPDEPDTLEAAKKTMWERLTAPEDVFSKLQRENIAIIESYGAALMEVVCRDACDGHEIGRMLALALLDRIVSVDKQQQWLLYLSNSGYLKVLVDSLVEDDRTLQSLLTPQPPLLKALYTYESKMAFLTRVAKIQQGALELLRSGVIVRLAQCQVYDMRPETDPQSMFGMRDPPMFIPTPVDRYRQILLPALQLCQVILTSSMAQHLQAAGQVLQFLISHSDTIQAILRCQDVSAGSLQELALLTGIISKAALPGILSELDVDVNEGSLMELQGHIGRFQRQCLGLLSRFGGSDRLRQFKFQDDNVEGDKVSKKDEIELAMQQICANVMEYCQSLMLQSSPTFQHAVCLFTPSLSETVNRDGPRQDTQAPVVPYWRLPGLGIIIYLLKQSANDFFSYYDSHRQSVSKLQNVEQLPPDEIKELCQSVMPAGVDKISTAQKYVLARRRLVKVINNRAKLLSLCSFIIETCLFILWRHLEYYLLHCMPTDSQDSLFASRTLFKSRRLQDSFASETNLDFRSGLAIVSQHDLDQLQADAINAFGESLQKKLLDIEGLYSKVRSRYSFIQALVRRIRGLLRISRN

Columns and labels:
NPHP2 (inversin) = target: T1, NPHP2 (inversin) (UniProt Q9Y283); assay: two-hybrid; directed yeast two-hybrid by mating: AH109 with pGBKT7 (BD, bait) fusions x Y187 with pACT2 (AD, prey) fusions; growth on -leu,-trp,-his plates scored as strong, medium or weak; each mating repeated at least three times
T1 sequence: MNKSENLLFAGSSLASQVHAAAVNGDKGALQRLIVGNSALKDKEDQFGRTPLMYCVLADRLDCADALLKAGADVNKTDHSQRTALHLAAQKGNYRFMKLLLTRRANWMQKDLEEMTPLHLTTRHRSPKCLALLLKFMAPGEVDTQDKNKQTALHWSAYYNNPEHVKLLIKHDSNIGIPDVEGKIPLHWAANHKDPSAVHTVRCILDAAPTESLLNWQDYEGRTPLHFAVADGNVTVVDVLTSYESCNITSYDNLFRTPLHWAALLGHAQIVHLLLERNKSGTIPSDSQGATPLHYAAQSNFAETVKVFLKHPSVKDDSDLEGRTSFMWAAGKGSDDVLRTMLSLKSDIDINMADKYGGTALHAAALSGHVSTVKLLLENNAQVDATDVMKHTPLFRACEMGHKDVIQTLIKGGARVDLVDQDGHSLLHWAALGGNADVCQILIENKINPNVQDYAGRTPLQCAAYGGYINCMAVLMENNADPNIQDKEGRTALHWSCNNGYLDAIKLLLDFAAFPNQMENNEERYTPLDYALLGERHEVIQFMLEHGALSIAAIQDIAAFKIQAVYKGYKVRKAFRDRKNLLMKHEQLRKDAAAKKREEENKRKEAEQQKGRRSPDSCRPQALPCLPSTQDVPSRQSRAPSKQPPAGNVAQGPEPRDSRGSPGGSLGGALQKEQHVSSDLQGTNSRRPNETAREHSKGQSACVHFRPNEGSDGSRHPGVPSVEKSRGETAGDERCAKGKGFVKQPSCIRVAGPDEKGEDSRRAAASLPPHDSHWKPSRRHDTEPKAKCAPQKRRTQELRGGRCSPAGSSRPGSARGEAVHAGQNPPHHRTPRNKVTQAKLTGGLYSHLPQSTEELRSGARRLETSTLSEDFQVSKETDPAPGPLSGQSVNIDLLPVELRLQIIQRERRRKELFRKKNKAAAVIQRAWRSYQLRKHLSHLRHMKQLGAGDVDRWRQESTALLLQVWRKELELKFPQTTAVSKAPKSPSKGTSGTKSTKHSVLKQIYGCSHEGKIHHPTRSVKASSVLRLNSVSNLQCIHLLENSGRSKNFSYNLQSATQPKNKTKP

NPHP4 = target: T2, NPHP4 (UniProt O75161); assay: as above
T2 sequence: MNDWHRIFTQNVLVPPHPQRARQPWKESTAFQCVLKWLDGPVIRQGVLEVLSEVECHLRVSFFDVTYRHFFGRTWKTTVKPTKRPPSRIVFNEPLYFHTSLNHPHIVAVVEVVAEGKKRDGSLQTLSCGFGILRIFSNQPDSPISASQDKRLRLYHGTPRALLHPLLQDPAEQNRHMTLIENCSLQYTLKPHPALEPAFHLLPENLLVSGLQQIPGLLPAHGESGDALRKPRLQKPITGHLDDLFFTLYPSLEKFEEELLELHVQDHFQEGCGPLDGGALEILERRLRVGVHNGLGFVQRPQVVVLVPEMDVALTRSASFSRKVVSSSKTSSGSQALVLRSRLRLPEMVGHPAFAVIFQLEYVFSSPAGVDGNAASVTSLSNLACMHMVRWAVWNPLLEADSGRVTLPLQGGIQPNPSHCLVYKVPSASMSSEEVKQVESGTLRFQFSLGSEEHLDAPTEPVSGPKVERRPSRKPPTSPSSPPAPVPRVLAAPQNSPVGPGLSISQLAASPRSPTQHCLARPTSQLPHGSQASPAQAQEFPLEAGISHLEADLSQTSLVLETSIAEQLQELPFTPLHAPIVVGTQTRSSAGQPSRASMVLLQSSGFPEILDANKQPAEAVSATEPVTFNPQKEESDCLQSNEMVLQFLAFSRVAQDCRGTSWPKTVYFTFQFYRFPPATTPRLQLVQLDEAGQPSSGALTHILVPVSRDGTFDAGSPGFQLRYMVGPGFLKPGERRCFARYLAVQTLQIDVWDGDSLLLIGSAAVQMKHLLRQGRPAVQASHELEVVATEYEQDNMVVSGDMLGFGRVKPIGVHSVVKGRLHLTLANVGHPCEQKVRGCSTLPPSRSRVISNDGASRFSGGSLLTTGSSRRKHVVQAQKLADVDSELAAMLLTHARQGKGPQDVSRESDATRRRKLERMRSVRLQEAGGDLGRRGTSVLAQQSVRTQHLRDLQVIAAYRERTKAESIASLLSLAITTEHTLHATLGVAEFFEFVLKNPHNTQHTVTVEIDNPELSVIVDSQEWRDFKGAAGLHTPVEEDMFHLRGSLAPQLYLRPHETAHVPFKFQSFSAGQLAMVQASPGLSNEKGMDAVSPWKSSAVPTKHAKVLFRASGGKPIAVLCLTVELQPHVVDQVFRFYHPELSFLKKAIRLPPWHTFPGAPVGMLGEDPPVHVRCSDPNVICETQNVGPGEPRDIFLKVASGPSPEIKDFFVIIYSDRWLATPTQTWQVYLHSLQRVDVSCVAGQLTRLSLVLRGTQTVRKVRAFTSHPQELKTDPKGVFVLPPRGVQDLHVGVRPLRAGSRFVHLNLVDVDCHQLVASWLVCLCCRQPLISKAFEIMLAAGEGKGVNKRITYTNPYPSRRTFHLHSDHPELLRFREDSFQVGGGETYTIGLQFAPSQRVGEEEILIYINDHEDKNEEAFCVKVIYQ

Cer-NPHP4-YC = target: T3, Cer-NPHP4-YC (UniProt O75161); assay: split reporter; BiFC: Cer-NPHP-YC co-expressed with YN-myc-Nup in NIH 3T3 cells in serum-free medium; fixed 48 hours post-transfection; YFP fluorescence at the base of the primary cilium, cells counted across two independent experiments
T3 sequence: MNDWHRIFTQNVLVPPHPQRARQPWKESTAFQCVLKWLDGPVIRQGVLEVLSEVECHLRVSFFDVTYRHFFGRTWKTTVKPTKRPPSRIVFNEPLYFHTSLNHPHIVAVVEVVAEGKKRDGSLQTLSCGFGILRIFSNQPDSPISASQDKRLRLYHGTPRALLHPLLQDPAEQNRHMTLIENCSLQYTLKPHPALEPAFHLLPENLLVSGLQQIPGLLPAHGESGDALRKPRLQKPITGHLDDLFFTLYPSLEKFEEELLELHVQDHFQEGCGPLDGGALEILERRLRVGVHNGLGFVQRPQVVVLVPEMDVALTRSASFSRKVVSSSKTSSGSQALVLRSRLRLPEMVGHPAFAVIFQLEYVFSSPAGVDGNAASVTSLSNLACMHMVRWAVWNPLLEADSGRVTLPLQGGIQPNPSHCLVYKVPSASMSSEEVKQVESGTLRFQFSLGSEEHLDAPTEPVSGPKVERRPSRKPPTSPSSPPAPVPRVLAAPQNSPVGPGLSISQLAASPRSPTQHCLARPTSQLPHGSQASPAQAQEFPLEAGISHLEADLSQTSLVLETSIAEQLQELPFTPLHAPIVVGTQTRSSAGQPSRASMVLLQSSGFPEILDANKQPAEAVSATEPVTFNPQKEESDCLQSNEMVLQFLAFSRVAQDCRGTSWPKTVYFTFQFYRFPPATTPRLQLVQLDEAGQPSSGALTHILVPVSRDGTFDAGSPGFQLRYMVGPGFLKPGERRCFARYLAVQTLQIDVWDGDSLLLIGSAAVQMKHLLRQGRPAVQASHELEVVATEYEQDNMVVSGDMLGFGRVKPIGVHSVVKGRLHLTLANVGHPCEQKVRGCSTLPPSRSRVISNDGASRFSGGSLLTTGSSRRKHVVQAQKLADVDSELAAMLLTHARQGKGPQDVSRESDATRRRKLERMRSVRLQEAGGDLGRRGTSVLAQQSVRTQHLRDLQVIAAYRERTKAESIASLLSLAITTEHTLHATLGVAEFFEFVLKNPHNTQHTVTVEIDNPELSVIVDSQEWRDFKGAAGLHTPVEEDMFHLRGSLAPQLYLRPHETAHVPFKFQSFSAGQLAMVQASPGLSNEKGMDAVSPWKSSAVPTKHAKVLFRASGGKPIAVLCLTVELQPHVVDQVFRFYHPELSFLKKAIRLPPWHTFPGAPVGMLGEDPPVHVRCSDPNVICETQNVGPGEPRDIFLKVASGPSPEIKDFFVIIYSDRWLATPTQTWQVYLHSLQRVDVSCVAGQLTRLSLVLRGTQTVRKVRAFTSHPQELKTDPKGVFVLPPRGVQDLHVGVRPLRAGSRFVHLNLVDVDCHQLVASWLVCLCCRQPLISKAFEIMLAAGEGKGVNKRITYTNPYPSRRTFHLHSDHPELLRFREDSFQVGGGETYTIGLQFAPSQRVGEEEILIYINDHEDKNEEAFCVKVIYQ

## Nup205 (from UniProt Q92621 1-2012)
NPHP2 (inversin)
  binding: binds
NPHP4
  binding: binds weakly

B1: YN-myc-Nup43 (protein, UniProt Q8NFH3 1-380)
chain: MEEIYAKFVSQKISKTRWRPLPPGSLQTAETFATGSWDNEENYISLWSIGDFGNLDSDGGFEGDHQLLCDIRHHGDVMDLQFFDQERIVAASSTGCVTVFLHHPNNQTLSVNQQWTTAHYHTGPGSPSYSSAPCTGVVCNNPEIVTVGEDGRINLFRADHKEAVRTIDNADSSTLHAVTFLRTPEILTVNSIGQLKIWDFRQQGNEPSQILSLTGDRVPLHCVDRHPNQQHVVATGGQDGMLSIWDVRQGTMPVSLLKAHEAEMWEVHFHPSNPEHLFTCSEDGSLWHWDASTDVPEKSSLFHQGGRSSTFLSHSISNQANVHQSVISSWLSTDPAKDRIEITSLLPSRSLSVNTLDVLGPCLVCGTDAEAIYVTRHLFS
Cer-NPHP4-YC
  binding: no binding
